PMC11626941, “FBLN7 mediates vascular smooth muscle cell phenotype switching and vascular remodeling in hypertension” (Theranostics, 2024)
No constants are given. Whether binding was seen depends on the method and setting. For some of these results: In cells and extracts the contact can be indirect. Some results given as binding are weak or reduced against the parent protein; the word gives no strength. For some of these results: Where a sequence is shown, tags or fusion partners need not be part of it.

How the values were obtained:
[1] = target: T1, Myc-tagged full-length mouse FBLN7 (mouse) (UniProt Q501P1); assay: co-IP; HEK293T co-transfected with tagged FBLN7 and SDC4 plasmids (full length or truncations), lysed after 24 hours; antibody overnight at 4 °C, protein A/G magnetic beads, washed with 0.5% Tween-20 in PBS, western blot
T1 sequence: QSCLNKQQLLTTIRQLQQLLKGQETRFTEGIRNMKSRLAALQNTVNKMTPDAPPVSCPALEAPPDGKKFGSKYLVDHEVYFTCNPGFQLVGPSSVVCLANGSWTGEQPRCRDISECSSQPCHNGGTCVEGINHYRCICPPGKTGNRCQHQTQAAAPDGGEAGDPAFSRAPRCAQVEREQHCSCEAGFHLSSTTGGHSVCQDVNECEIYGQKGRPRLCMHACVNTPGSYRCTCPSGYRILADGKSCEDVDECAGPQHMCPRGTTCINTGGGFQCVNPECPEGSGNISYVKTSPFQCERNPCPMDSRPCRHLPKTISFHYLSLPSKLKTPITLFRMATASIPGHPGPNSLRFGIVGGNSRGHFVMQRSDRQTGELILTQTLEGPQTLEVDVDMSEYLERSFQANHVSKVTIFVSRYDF

[2] = target: T2, Flag-tagged full-length mouse SDC4 (mouse) (UniProt O35988); assay: co-IP; HEK293T co-transfected with increasing amounts of FBLN7 plasmids and a fixed amount of SDC4; dimeric form of SDC4 read on the blot
T2 sequence: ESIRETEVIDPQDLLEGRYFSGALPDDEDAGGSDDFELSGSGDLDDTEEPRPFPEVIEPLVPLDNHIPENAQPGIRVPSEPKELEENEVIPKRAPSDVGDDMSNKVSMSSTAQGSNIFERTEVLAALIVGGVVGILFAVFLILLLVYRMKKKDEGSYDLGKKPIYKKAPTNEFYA

[3] = target: T3, FBLN7 in VSMCs (co-immunoprecipitation of Figure S6A) (UniProt Q501P1); assay: co-IP; VSMC lysate; antibodies overnight at 4 °C, protein A/G magnetic beads, western blot (Figure S6A)
T3 sequence: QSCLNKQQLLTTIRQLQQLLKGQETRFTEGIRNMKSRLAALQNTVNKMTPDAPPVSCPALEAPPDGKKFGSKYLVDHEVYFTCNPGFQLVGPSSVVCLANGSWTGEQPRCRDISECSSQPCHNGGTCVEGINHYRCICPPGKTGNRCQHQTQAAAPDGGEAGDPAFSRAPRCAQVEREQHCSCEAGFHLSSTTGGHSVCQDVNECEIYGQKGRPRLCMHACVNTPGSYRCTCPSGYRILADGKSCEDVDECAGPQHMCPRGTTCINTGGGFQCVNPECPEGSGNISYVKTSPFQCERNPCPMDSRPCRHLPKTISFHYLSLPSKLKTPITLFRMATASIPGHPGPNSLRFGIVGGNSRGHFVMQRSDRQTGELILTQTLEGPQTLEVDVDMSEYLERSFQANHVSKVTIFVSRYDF

[4] = target: syndecan-4 (SDC4), endogenous in VSMCs (mouse (endogenous in MASMCs)) (UniProt O35988); assay: immunoblot with non-reducing loading buffer; VSMCs overexpressing FBLN7; SDC4 dimers read on the blot (Figure S6B)
[5] = target: T2, Flag-tagged full-length mouse SDC4 (mouse); assay: co-IP; HEK293T co-transfected with tagged FBLN7 and SDC4 plasmids (full length or truncations), lysed after 24 hours; antibody overnight at 4 °C, protein A/G magnetic beads, washed with 0.5% Tween-20 in PBS, western blot

B1: Flag-tagged full-length mouse SDC4 (receptor, UniProt O35988 24-198, looked up)
chain: ESIRETEVIDPQDLLEGRYFSGALPDDEDAGGSDDFELSGSGDLDDTEEPRPFPEVIEPLVPLDNHIPENAQPGIRVPSEPKELEENEVIPKRAPSDVGDDMSNKVSMSSTAQGSNIFERTEVLAALIVGGVVGILFAVFLILLLVYRMKKKDEGSYDLGKKPIYKKAPTNEFYA
notes: Plasmids provided by GenePharma; Seen as monomer, dimer and tetramer bands on non-reducing blots; also called Flag-SDC4; Flag (SDC4); source: HEK293T, transfected (pcDNA 3.1), in lysate; not shown: Flag, C-terminal, kept
In the case of B1, the binding [1] is reported as “binds” and the binding [2] is reported as “binds”.

B2: syndecan-4 (SDC4), endogenous in VSMCs (receptor, UniProt O35988 24-198)
chain: ESIRETEVIDPQDLLEGRYFSGALPDDEDAGGSDDFELSGSGDLDDTEEPRPFPEVIEPLVPLDNHIPENAQPGIRVPSEPKELEENEVIPKRAPSDVGDDMSNKVSMSSTAQGSNIFERTEVLAALIVGGVVGILFAVFLILLLVYRMKKKDEGSYDLGKKPIYKKAPTNEFYA
B2 was tested, and the binding [3] was “binds” and the binding [4] was “binds”.

B3: Myc-tagged full-length mouse FBLN7 (protein, UniProt Q501P1 25-440)
chain: QSCLNKQQLLTTIRQLQQLLKGQETRFTEGIRNMKSRLAALQNTVNKMTPDAPPVSCPALEAPPDGKKFGSKYLVDHEVYFTCNPGFQLVGPSSVVCLANGSWTGEQPRCRDISECSSQPCHNGGTCVEGINHYRCICPPGKTGNRCQHQTQAAAPDGGEAGDPAFSRAPRCAQVEREQHCSCEAGFHLSSTTGGHSVCQDVNECEIYGQKGRPRLCMHACVNTPGSYRCTCPSGYRILADGKSCEDVDECAGPQHMCPRGTTCINTGGGFQCVNPECPEGSGNISYVKTSPFQCERNPCPMDSRPCRHLPKTISFHYLSLPSKLKTPITLFRMATASIPGHPGPNSLRFGIVGGNSRGHFVMQRSDRQTGELILTQTLEGPQTLEVDVDMSEYLERSFQANHVSKVTIFVSRYDF
With B3 the binding [5] was “binds”.

B4: FBLN7-delete-79-136aa (Myc-tagged, sushi domain deleted) (domain or fragment, UniProt Q501P1)
chain: QSCLNKQQLLTTIRQLQQLLKGQETRFTEGIRNMKSRLAALQNTVNKMTPDAPPISECSSQPCHNGGTCVEGINHYRCICPPGKTGNRCQHQTQAAAPDGGEAGDPAFSRAPRCAQVEREQHCSCEAGFHLSSTTGGHSVCQDVNECEIYGQKGRPRLCMHACVNTPGSYRCTCPSGYRILADGKSCEDVDECAGPQHMCPRGTTCINTGGGFQCVNPECPEGSGNISYVKTSPFQCERNPCPMDSRPCRHLPKTISFHYLSLPSKLKTPITLFRMATASIPGHPGPNSLRFGIVGGNSRGHFVMQRSDRQTGELILTQTLEGPQTLEVDVDMSEYLERSFQANHVSKVTIFVSRYDF
B4 was tested, and the binding [5] was “binds”.

B5: FBLN7-delete-139-440aa (Myc-tagged, FBLN7-C region deleted) (domain or fragment, UniProt Q501P1)
chain: QSCLNKQQLLTTIRQLQQLLKGQETRFTEGIRNMKSRLAALQNTVNKMTPDAPPVSCPALEAPPDGKKFGSKYLVDHEVYFTCNPGFQLVGPSSVVCLANGSWTGEQPRCRDIS
In the case of B5, the binding [5] is reported as “no binding”.
